Results taken from the RNAGym collection of RNA variant scans (doi:10.1073/pnas.2313332121).
Variants at the background level are over-represented here.

B1: TPR 5TU (parent)
chain: GGAUCUUCUCGAUCUAACAAAAAAGACAAAUCUGCCACAAAGCUUGAGAGCAUCUUCGGAUGCAGAGGCGGCAGCCUUCGGUGGCGCGAUAGCGCCAACGUUCUCAACUAUGACACGCAAAACGCGUGCUCCGUUGAAUGGAGUUUAUCAUG

Variants of: B1
Assay: polymerase ribozyme fitness, log enrichment relative to wild type (log ratio); higher = more active; in vitro selection for triplet polymerase activity
Method in brief: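 For each subunit of a heterodimeric triplet polymerase ribozyme, a mutant library was built by PCR and transcribed, then taken through a single in vitro selection round in triplicate. Selection involved annealing to a biotinylated primer, the partner subunit and triplets, incubation frozen at −7 °C, gel excision of extended constructs, capture on streptavidin beads and RT-PCR. Genotypes were retained after Illumina sequencing of inputs and outputs only with ≥10 input reads and ≥1 read in each output. Fitness is defined as the logarithm of a genotype's enrichment relative to wild-type enrichment, using inverse-variance-weighted averages across replicates, with the logarithm taken to base 2.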

Polymerase ribozyme fitness (log ratio), ≤ -4.2:
C10G A66U C85U C93U U134C A142U U145G
C10G A73U
C10G A89C U148C
C10G A91G A97G C108A C118G
C10G C27U U61A C99A
C10G C32G C57A G65A C87A G124A
C10G C35G G58U G81A A106G
C10G C35U U55G G81A C87A
C10G C38U A52C G88U
C10G C38U C123U G133U
C10G C43U G50A U82C C105G A138C G141C
C10G C54G C85U C95G U104G
C10G C54G G81A G88C C96A G126C U134G
C10G C54U G80U C87G A89G A91C U144C
C10G C54U G94C
C10G C57A C96A
C10G C57G C93G
C10G C57U C72U C87A A91G A110C U139A A147C
C10G C63U A89U C95U A138C A147U
C10G C76U G84U C95A U104G U134G G136A
C10G C87A
C10G C87U C99G U127A
C10G C93G
C10G G11U A21C C27G C57U C85U C96A G117A C129A U144G
C10G G25U G34C A89C A107U
C10G G46A U90C C93U C108A U151G
C10G G48C G88U
C10G G58U C76A A97U C103G G117C U148G
C10G G59C G80A C93A
C10G G62C G65C C93U A121G
C10G G68A C79G
C10G G68A U82G A142G
C10G G80C C87U
C10G G84C
C10G G92C A107C C118U C123G
C10G U13A A49C G70A C96U U148G
C10G U13A G46C G59C C85U G88A A119U
C10G U13C C57U U61A G94U U127G G136A
C10G U13G A20C A41G C51U G74A A147C
C10G U13G C87U C125U
C10G U13G U44A G58C A60G G88C U90A C93A A120U G136U
C10G U15C C69A
C10G U15G A23C G62C A97C C125U
C10G U15G A49C A60C C69U A73U C96U
C10G U31C C76U C93G U102C U145G
C10G U31C C95A
C10G U33G G42C G50U G74C
C10G U55A A73C U77C A91U U101G U109A A115U
C10G U78G C85G U109C G140U
C10G U109C A137C
C10U A12C C54A C85U C108U
C10U A12U C54A A60G C96G A115G G117U A147U
C10U A16C A23U G62C A64G G83C U102G C114U U127G
C10U A16G C43G U44G U77A U82A A120C
C10U A16U A28G A37C A60U C63U C85A A89C C108U
C10U A17G C35U A49C C51U C76A C87U C96A G100A A113G
C10U A17U A41C G50C G84A
C10U A19G U33A C79U C93U
C10U A19U G59C A73U C79U C93A C96A A147G
C10U A22C C36A A49C U53C C57G G58A G86U C93U G117U
C10U A23C U31C C57A G80C A107U U145A
C10U A23G G25U A40U U77C G86A C105A U139C
C10U A24G C36U C54G C95A C149G
C10U A24U C35U A91G C93G A98C C118U
C10U A26C U31G A91G C95G C108U
C10U A26G A37U G68A G81C
C10U A26U U55A A73G G92U A110C
C10U A29U A37U G59A G86A G152U
C10U A29U A40G A60G A64U G65C G83A G84A A91G U104G
C10U A30G U33G U45A G46C C57A C75U U139A
C10U A37C C54G C76U C95U G136U
C10U A39C G48C G94C C99A A106G G117A A119G
C10U A39G G59C G71A U101C A115G G140U
C10U A39U C54U C87A C99A G133U
C10U A40G C87G U144C
C10U A40G G59A U78A G94A C108U
C10U A47G G94U A147G
C10U A47U A89C C95U C105U
C10U A49U U56G G81A G94A U146G
C10U A52C G84U A110C C129G U145C
C10U A64C A89C G117C A137C
C10U A91U
C10U C14A G48C U56A C93A U109G A142G
